Results from PubChem BioAssay (NCI).
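Tested at 5 concentrations; 48 h exposure; 96-well plates; endpoints linearly interpolated, else capped at highest concentration. Here, GI50 denotes the concentration required for 50% inhibition of growth. TGI is the concentration that stops growth completely.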

System: NCI-H322M lung
Test: NCI-60 cell line screen, 48 h

Structure (SMILES): CC(=O)/C=C/c1cccc2c1C(=O)NC(C)(c1cc3cc(Br)ccc3oc1=O)N2 (configuration not stated)
- GI50: 16.6 µM
- TGI: 67.1 µM
